56 sequences from the supplement of paper PMC11417369 can be followed below.

The other results are listed elsewhere or left out.

For this experiment, the system named is PfHDP1 homeodomain (GST-tagged). Description: gcPBM binding intensity (ln(normalized median fluorescence intensity)); higher = stronger DNA binding. Summed up: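 In this array assay, P. falciparum DNA-binding domains with a GST tag, expressed in E. coli, were applied for 1 h to primer-extended double-stranded 36-bp intergenic genomic probes and negative controls on an Agilent 4 × 180k array. Bound protein was visualised with Alexa488 anti-GST antibody at 488 nm. Binding intensity is the highest Masliner-normalised natural-log median intensity across replicate spots of either probe orientation.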
For the sequence “AAATGAAAGAACAGCACACATATATATTATATATAA [CACACA_site2002]”, the “gcPBM binding intensity (ln)” value amounted to 6.63.
Regarding “AAAAAAAAAACAAATACACACGCACCCAAAAAAAAA [CACACA_site8166]”, the “gcPBM binding intensity (ln)” value came to 7.1.
Turning to “AAAACACGCGGACACACACACACACGCCCACATATA [CACACA_site7105]”, the “gcPBM binding intensity (ln)” value is 6.99.
Under “AACATAAATTACTTTTTACACACTAATATAAAATAC [CACACA_site8297]” stands 6.54.
With “AATTGCTCGATATATGCACACAGTTTTGTTATTTTT [CACACA_site8465]”, the “gcPBM binding intensity (ln)” value was 10.5.
Take “ACTTTCAAGGATGTACGTACATATGTATTTTATAAC [XGTACX_site6714]”: the “gcPBM binding intensity (ln)” value turned out to be 6.75.
For the sequence “ATTTCATTAAAGATTACATGCAATTCTATATTATTT [TGCATGCA_site260]”, the “gcPBM binding intensity (ln)” value turned out to be 6.47.
For the sequence “AATTAATTTATTTTATAAATAGTTAGATCGTCATAA [GTGCAC_negctrl_site660]”, the “gcPBM binding intensity (ln)” value was determined as 6.33.
As for “AGGTCATACATAAAATGTACATATATATAAATATAT [XGTACX_site7147]”, the “gcPBM binding intensity (ln)” value was found to be 6.54.
The figure for “ACAAGAATACACCACGCACACACACTAGAGAAAAAA [CACACA_site9276]” is 7.42; for “TGAACACCCAAATACACACACTCAAAAAAAAAAAAG [CACACA_site5467]” it is 6.34; for “ATAAAAATAAAAGACGCATGTTCTTAAAATAAGAAC [TGCATGCA_site189]” it is 6.03.
“GTGTGATCTTTTGAAAGTACATTTTTTTTTTTTTTT [XGTACX_site6311]”: the “gcPBM binding intensity (ln)” value turned out to be 6.33.
For “AAACAAAATGGTAACACACACATATATATATATATA [CACACA_site1939]”, the “gcPBM binding intensity (ln)” value turned out to be 9.37.
“ATATATATATATAATGCACACATTATGAATTATGTA [CACACA_site3384]”: the “gcPBM binding intensity (ln)” value was 10.8.
Under “TTATATATATGTAATTGTACTTTTAATTTTTTTTTA [XGTACX_site4357]” stands 6.26; under “TAATTTTTTTTAAATACACACTGAAATGTGAATTTT [CACACA_site4476]”, 6.17; under “TATTTTATAATAGGCACACATATAAAAATATATATA [CACACA_site4127]”, 6.57.
“TAATAAAGTATTTTGCGTACTTATTTTATTCTTCTA [XGTACX_site2095]”: the “gcPBM binding intensity (ln)” value was 6.12.
As for “TGGCATATATATAAATGTACTTTCTTTCTATCTGTT [XGTACX_site8483]”, the “gcPBM binding intensity (ln)” value is 6.36.
“ATTGTGTGAACAAAATGTACATTTTCTCTACATTAA [XGTACX_site1333]”: the “gcPBM binding intensity (ln)” value is 6.49.
Under “TTTAAAATATTTTCTTGTACGAAGGAACATTTCTTA [XGTACX_site4013]” stands 6.41.
With “AAATACTATATCAAGCGTACTTATTTCATGGTAATA [XGTACX_site7878]”, the “gcPBM binding intensity (ln)” value is 6.24.
As to “GTGCCTTTAAAAAAAAGTACAAAAAAGAACGAATTA [XGTACX_site3714]”, the “gcPBM binding intensity (ln)” value stood at 6.66.
“AAAAAAAAAAAAAGCACACACACATATGAGTATATA [CACACA_site4682]”: the “gcPBM binding intensity (ln)” value stood at 6.82.
For “TATATATATATATATTGTACATTTTTTTTTTTTTTT [XGTACX_site7891]”, the “gcPBM binding intensity (ln)” value was 9.21.
The figure for “TATGTAAAGAGTAAGGGTACATGTATAATACGGCTC [XGTACX_site1283]” is 7.3; for “TTTTCATTAAATATATATGCATACCATATGTACATT [GTGCAC_negctrl_site539]” it is 6.96.
Consider “ATAATAAATAAAATAACACACATATATAGATATATA [CACACA_site6224]”, for which the “gcPBM binding intensity (ln)” value turned out to be 6.39.
For the sequence “TATATTCTTATTATTGCATGCTGCACGAAGATTTTC [TGCATGCA_site831]”, the “gcPBM binding intensity (ln)” value came out at 7.5.
Under “TTTATATAAAAAAATTGTACATATTTATTATAAACA [XGTACX_site2124]” stands 6.22; under “TGTATGCATATTTGATGTACGCACATATACTAATTT [XGTACX_site3159]”, 7.17; under “TTTAATTATAAGATAACACACAAAAAAAATAAAATA [CACACA_site254]”, 6.93.
Under “GTATGTTTGTTATGCACACAAATGCATCTTATTTCC [CACACA_site2690]” stands 10.8.
As to “TATTTAATTACATGAACACACATTATGTATTTTTAA [CACACA_site2962]”, the “gcPBM binding intensity (ln)” value came to 6.33.
Take “TTTTTATTTAATAATATATTAATCATATAAATAAAT [GTGCAC_negctrl_site210]”: the “gcPBM binding intensity (ln)” value was determined as 6.07.
For “TAAAAAAAAAAAACAAGTACATATATAAATATATAT [XGTACX_site7537]”, the “gcPBM binding intensity (ln)” value amounted to 6.07.
As for “CAAGAATAAAAATACAAGCACACATGTATGAAATAT [CACACA_site3214]”, the “gcPBM binding intensity (ln)” value worked out at 6.74.
Under “AAACCGAATTTACATGAATGTAAATTATGTTGTTTT [CACACA_negctrl_site1834]” stands 5.88; under “ACATAAAATAAATATACACACATATGTATTTATTAT [CACACA_site5648]”, 6.69.
For the sequence “ATTTCTCTATAGTAATGTACAAAAAAAAGGAAAAAG [XGTACX_site2757]”, the “gcPBM binding intensity (ln)” value worked out at 6.49.
Consider “TTATGGATAAATAAATGTACGTTAAGATAACACAAA [XGTACX_site4208]”, for which the “gcPBM binding intensity (ln)” value worked out at 6.24.
With “ATATACATATGTGTGTGTACTTATATCACATTTTTG [XGTACX_site3785]”, the “gcPBM binding intensity (ln)” value was 6.56.
For “GTTTTTTTGTTTTAGTGTACCTAAAACTGCATGTAG [XGTACX_site294]”, the “gcPBM binding intensity (ln)” value stood at 7.23.
Turning to “TCGACAAAGGCATATACACACATTTGTAACATAAAT [CACACA_site4471]”, the “gcPBM binding intensity (ln)” value was found to be 6.33.
As to “TGGATAATCAAAAATTGTACAAGTGTTGTTATTGGT [XGTACX_site8010]”, the “gcPBM binding intensity (ln)” value was determined as 6.76.
Under “ACCGGTGGAACGTTTTGTACATATATAATAATATAT [XGTACX_site2143]” stands 6.62; under “ATATATATATTGAAAAGTACATATATATATATATTA [XGTACX_site1560]”, 8.15.
Under “AAAAGAAATAAGGATACACACTATTGATAAAAGTAG [CACACA_site4309]” stands 6.59; under “TATTACAAATAATACCGTACACAAATGTTTTTTTAT [XGTACX_site7977]”, 6.37; under “TCGTGGGAAAATATTACACACATTTACTATAGTATC [CACACA_site5836]”, 6.43.
For “CTTGGGAAGTATTCAGTGCAAAATATAAGCAGGTCA [GTGCAC_site9758]”, the “gcPBM binding intensity (ln)” value was 10.2.
Turning to “CATATTCCCCCCCACACACACACACGCATACATACC [CACACA_site7148]”, the “gcPBM binding intensity (ln)” value came out at 9.16.
Regarding “ATATAAAAAATATAAGGTACACATATATGTAGATAT [XGTACX_site6792]”, the “gcPBM binding intensity (ln)” value came out at 6.97.
Under “TAAATAAAATACAAATGTACATAAATAATAAATATA [XGTACX_site1813]” stands 6.43.
The figure for “AATTATTTTAAATATTGTACTATTACAGAATGGTGT [XGTACX_site5693]” is 6.65.
